# Data as given in the supplement of paper PMC8728848.
# This is one part of the list.
# B1: SSP1 (Sclerotinia sclerotiorum), XP_001584968 (protein)
# chain: MGSSHHHHHHSSGLVPRGSHMSLLTTELACTSAPDQVLHLFFQDGQNILEARSPDGGNVWTTQDTIIAKDGDYNGSSMTCYYVDKDANFDNQPSIHLLYMNKDKQLTEKVKRMKGDNPIWEDAKVPDEVRKGPEQYSKLTSGSFNQGTGWNPNGSQWAYFSASKDGKMGIVEIRRTPKDPWHTETILEEKWGDELPGTALACVIGNGKIRVFLQHHDYSIILYENQNNTWHDRGTFIPKDKVQATTPLACTMTKDGSVHLFYVSKSNKIIHCTDGKKEEELINFFPGSKLGATSVENKITLFFRNLNPVNEVGTLENENGSWKHGTTVIPA
# Tests used:
# Experiment in all cases: glycan array binding signal (z-score within array); higher = stronger binding
# Conditions in all cases: glycan notation: IUPAC condensed, linker removed
# [1] = target: Glc(b1-4)Glc
# Summary of the method: (§1)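 From the Consortium for Functional Glycomics database, 3228 arrays were curated, keeping only those whose protein sequence was available. Binding is given as a within-array Z-score averaged across arrays sharing a protein sequence and across linkers. Negative Z-scores can be read as non-binding.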
# [2] = target: Glc(b1-6)Glc
# Summary of the method: as §1
# [3] = target: GlcA(b1-3)Gal
# Summary of the method: as §1
# [4] = target: GlcA(b1-3)GlcNAc
# Summary of the method: as §1
# [5] = target: GlcA(b1-6)Gal
# Summary of the method: as §1
# [6] = target: GlcA3S(b1-3)Gal(b1-4)GlcNAc(b1-2)Man
# Summary of the method: as §1
# [7] = target: GlcA3S(b1-3)Gal(b1-4)GlcNAc(b1-3)Gal(b1-4)Glc
# Summary of the method: as §1
# [8] = target: GlcNAc(a1-3)Gal(b1-4)GlcNAc
# Summary of the method: as §1
# [9] = target: GlcNAc(a1-4)Gal(b1-3)GlcNAc
# Summary of the method: as §1
# [10] = target: GlcNAc(a1-4)Gal(b1-4)GalNAc
# Summary of the method: as §1
# [11] = target: GlcNAc(a1-4)Gal(b1-4)GlcNAc
# Summary of the method: as §1
# [12] = target: GlcNAc(a1-4)Gal(b1-4)GlcNAc(b1-3)Gal(b1-4)Glc
# Summary of the method: as §1
# [13] = target: GlcNAc(a1-4)Gal(b1-4)GlcNAc(b1-3)Gal(b1-4)GlcNAc
# Summary of the method: as §1
# [14] = target: GlcNAc(a1-4)Gal(b1-4)GlcNAc(b1-3)Gal(b1-4)GlcNAc(b1-3)Gal(b1-4)GlcNAc
# Summary of the method: as §1
# [15] = target: GlcNAc(a1-4)Gal(b1-4)GlcNAc(b1-3)Gal(b1-4)[Fuc(a1-3)]GlcNAc(b1-3)Gal(b1-4)[Fuc(a1-3)]GlcNAc
# Summary of the method: as §1
# [16] = target: GlcNAc(a1-6)Gal(b1-4)GlcNAc
# Summary of the method: as §1
# [17] = target: GlcNAc(b1-2)Gal(b1-3)GalNAc
# Summary of the method: as §1
# [18] = target: GlcNAc(b1-2)Man(a1-3)[GlcNAc(b1-2)Man(a1-6)]Man(b1-4)GlcNAc(b1-4)GlcNAc
# Summary of the method: as §1
# [19] = target: GlcNAc(b1-2)Man(a1-3)[GlcNAc(b1-2)Man(a1-6)]Man(b1-4)GlcNAc(b1-4)[Fuc(a1-6)]GlcNAc
# Summary of the method: as §1
# [20] = target: GlcNAc(b1-2)Man(a1-3)[GlcNAc(b1-4)][GlcNAc(b1-2)Man(a1-6)]Man(b1-4)GlcNAc(b1-4)GlcNAc
# Summary of the method: as §1
# [21] = target: GlcNAc(b1-2)Man(a1-3)[GlcNAc(b1-4)][GlcNAc(b1-2)Man(a1-6)]Man(b1-4)GlcNAc(b1-4)[Fuc(a1-6)]GlcNAc
# Summary of the method: as §1
# [22] = target: GlcNAc(b1-2)[GlcNAc(b1-4)]Man(a1-3)[GlcNAc(b1-2)Man(a1-6)]Man(b1-4)GlcNAc(b1-4)GlcNAc
# Summary of the method: as §1
# [23] = target: GlcNAc(b1-2)[GlcNAc(b1-4)]Man(a1-3)[GlcNAc(b1-4)][GlcNAc(b1-2)Man(a1-6)]Man(b1-4)GlcNAc(b1-4)GlcNAc
# Summary of the method: as §1
# [24] = target: GlcNAc(b1-2)[GlcNAc(b1-4)]Man(a1-3)[GlcNAc(b1-4)][GlcNAc(b1-2)[GlcNAc(b1-6)]Man(a1-6)]Man(b1-4)GlcNAc(b1-4)GlcNAc
# Summary of the method: as §1
# [25] = target: GlcNAc(b1-2)[GlcNAc(b1-4)]Man(a1-3)[GlcNAc(b1-4)][GlcNAc(b1-2)[GlcNAc(b1-6)]Man(a1-6)]Man(b1-4)GlcNAc(b1-4)[Fuc(a1-6)]GlcNAc
# Summary of the method: as §1
# [26] = target: GlcNAc(b1-2)[GlcNAc(b1-6)]Man(a1-6)[GlcNAc(b1-2)Man(a1-3)]Man(b1-4)GlcNAc(b1-4)GlcNAc
# Summary of the method: as §1
# [27] = target: GlcNAc(b1-2)[GlcNAc(b1-6)]Man(a1-6)[GlcNAc(b1-2)Man(a1-3)]Man(b1-4)GlcNAc(b1-4)[Fuc(a1-6)]GlcNAc
# Summary of the method: as §1
# [28] = target: GlcNAc(b1-2)[GlcNAc(b1-6)]Man(a1-6)[GlcNAc(b1-4)][GlcNAc(b1-2)Man(a1-3)]Man(b1-4)GlcNAc(b1-4)GlcNAc
# Summary of the method: as §1
# [29] = target: GlcNAc(b1-3)Fuc
# Summary of the method: as §1
# [30] = target: GlcNAc(b1-3)Gal
# Summary of the method: as §1
# [31] = target: GlcNAc(b1-3)Gal(b1-3)GalNAc
# Summary of the method: as §1
# [32] = target: GlcNAc(b1-3)Gal(b1-4)Glc
# Summary of the method: as §1
# [33] = target: GlcNAc(b1-3)Gal(b1-4)GlcNAc
# Summary of the method: as §1
# [34] = target: GlcNAc(b1-3)Gal(b1-4)GlcNAc(b1-2)Man(a1-3)[GlcNAc(b1-3)Gal(b1-4)GlcNAc(b1-2)Man(a1-6)]Man(b1-4)GlcNAc(b1-4)GlcNAc
# Summary of the method: as §1
# [35] = target: GlcNAc(b1-3)Gal(b1-4)GlcNAc(b1-2)Man(a1-3)[GlcNAc(b1-3)Gal(b1-4)GlcNAc(b1-2)Man(a1-6)]Man(b1-4)GlcNAc(b1-4)[Fuc(a1-6)]GlcNAc
# Summary of the method: as §1
# [36] = target: GlcNAc(b1-3)Gal(b1-4)GlcNAc(b1-2)[GlcNAc(b1-3)Gal(b1-4)GlcNAc(b1-6)]Man(a1-6)[GlcNAc(b1-3)Gal(b1-4)GlcNAc(b1-2)Man(a1-3)]Man(b1-4)GlcNAc(b1-4)GlcNAc
# Summary of the method: as §1
# [37] = target: GlcNAc(b1-3)Gal(b1-4)GlcNAc(b1-3)Gal(b1-4)GlcNAc
# Summary of the method: as §1
# [38] = target: GlcNAc(b1-3)Gal(b1-4)GlcNAc(b1-3)Gal(b1-4)GlcNAc(b1-2)Man(a1-3)[GlcNAc(b1-3)Gal(b1-4)GlcNAc(b1-3)Gal(b1-4)GlcNAc(b1-2)Man(a1-6)]Man(b1-4)GlcNAc(b1-4)GlcNAc
# Summary of the method: as §1
# [39] = target: GlcNAc(b1-3)Gal(b1-4)GlcNAc(b1-3)Gal(b1-4)GlcNAc(b1-2)Man(a1-3)[GlcNAc(b1-3)Gal(b1-4)GlcNAc(b1-3)Gal(b1-4)GlcNAc(b1-2)Man(a1-6)]Man(b1-4)GlcNAc(b1-4)[Fuc(a1-6)]GlcNAc
# Summary of the method: as §1
# [40] = target: GlcNAc(b1-3)Gal(b1-4)GlcNAc(b1-3)Gal(b1-4)GlcNAc(b1-2)[GlcNAc(b1-3)Gal(b1-4)GlcNAc(b1-3)Gal(b1-4)GlcNAc(b1-6)]Man(a1-6)[GlcNAc(b1-3)Gal(b1-4)GlcNAc(b1-3)Gal(b1-4)GlcNAc(b1-2)Man(a1-3)]Man(b1-4)GlcNAc(b1-4)[Fuc(a1-6)]GlcNAc
# Summary of the method: as §1
# [41] = target: GlcNAc(b1-3)Gal(b1-4)GlcNAc(b1-3)Gal(b1-4)GlcNAc(b1-3)Gal(b1-4)GlcNAc(b1-2)Man(a1-3)[GlcNAc(b1-3)Gal(b1-4)GlcNAc(b1-3)Gal(b1-4)GlcNAc(b1-3)Gal(b1-4)GlcNAc(b1-2)Man(a1-6)]Man(b1-4)GlcNAc(b1-4)GlcNAc
# Summary of the method: as §1
# [42] = target: GlcNAc(b1-3)Gal(b1-4)GlcNAc(b1-3)Gal(b1-4)GlcNAc(b1-3)Gal(b1-4)GlcNAc(b1-2)Man(a1-3)[GlcNAc(b1-3)Gal(b1-4)GlcNAc(b1-3)Gal(b1-4)GlcNAc(b1-3)Gal(b1-4)GlcNAc(b1-2)Man(a1-6)]Man(b1-4)GlcNAc(b1-4)[Fuc(a1-6)]GlcNAc
# Summary of the method: as §1
# [43] = target: GlcNAc(b1-3)Gal(b1-4)GlcNAc(b1-3)Gal(b1-4)GlcNAc(b1-3)Gal(b1-4)GlcNAc(b1-2)[GlcNAc(b1-3)Gal(b1-4)GlcNAc(b1-3)Gal(b1-4)GlcNAc(b1-3)Gal(b1-4)GlcNAc(b1-6)]Man(a1-6)[GlcNAc(b1-3)Gal(b1-4)GlcNAc(b1-3)Gal(b1-4)GlcNAc(b1-3)Gal(b1-4)GlcNAc(b1-2)Man(a1-3)]Man(b1-4)GlcNAc(b1-4)[Fuc(a1-6)]GlcNAc
# Summary of the method: as §1
# [44] = target: GlcNAc(b1-3)Gal(b1-4)GlcNAc(b1-3)Gal(b1-4)GlcNAc(b1-3)Gal(b1-4)GlcNAc(b1-3)Gal(b1-4)GlcNAc(b1-2)Man(a1-3)[GlcNAc(b1-3)Gal(b1-4)GlcNAc(b1-3)Gal(b1-4)GlcNAc(b1-3)Gal(b1-4)GlcNAc(b1-3)Gal(b1-4)GlcNAc(b1-2)Man(a1-6)]Man(b1-4)GlcNAc(b1-4)GlcNAc
# Summary of the method: as §1
# [45] = target: GlcNAc(b1-3)Gal(b1-4)GlcNAc(b1-3)Gal(b1-4)GlcNAc(b1-3)Gal(b1-4)GlcNAc(b1-3)Gal(b1-4)GlcNAc(b1-2)Man(a1-3)[GlcNAc(b1-3)Gal(b1-4)GlcNAc(b1-3)Gal(b1-4)GlcNAc(b1-3)Gal(b1-4)GlcNAc(b1-3)Gal(b1-4)GlcNAc(b1-2)Man(a1-6)]Man(b1-4)GlcNAc(b1-4)[Fuc(a1-6)]GlcNAc
# Summary of the method: as §1
binder,measurement,setting,value
B1,glycan array binding signal (z-score),[1],-0.238
same,glycan array binding signal (z-score),[2],0.346
same,glycan array binding signal (z-score),[3],-0.203
same,glycan array binding signal (z-score),[4],0.484
same,glycan array binding signal (z-score),[5],-0.415
same,glycan array binding signal (z-score),[6],-0.535
same,glycan array binding signal (z-score),[7],-0.315
same,glycan array binding signal (z-score),[8],-0.477
same,glycan array binding signal (z-score),[9],-0.07
same,glycan array binding signal (z-score),[10],0.074
same,glycan array binding signal (z-score),[11],-0.479
same,glycan array binding signal (z-score),[12],-0.521
same,glycan array binding signal (z-score),[13],-0.384
same,glycan array binding signal (z-score),[14],-0.238
same,glycan array binding signal (z-score),[15],2.28
same,glycan array binding signal (z-score),[16],-0.03
same,glycan array binding signal (z-score),[17],-0.103
same,glycan array binding signal (z-score),[18],-0.388
same,glycan array binding signal (z-score),[19],-0.153
same,glycan array binding signal (z-score),[20],-0.449
same,glycan array binding signal (z-score),[21],-0.382
same,glycan array binding signal (z-score),[22],0.408
same,glycan array binding signal (z-score),[23],-0.169
same,glycan array binding signal (z-score),[24],-0.587
same,glycan array binding signal (z-score),[25],-0.262
same,glycan array binding signal (z-score),[26],-0.043
same,glycan array binding signal (z-score),[27],-0.388
same,glycan array binding signal (z-score),[28],-0.424
same,glycan array binding signal (z-score),[29],0.529
same,glycan array binding signal (z-score),[30],-0.573
same,glycan array binding signal (z-score),[31],-0.121
same,glycan array binding signal (z-score),[32],-0.692
same,glycan array binding signal (z-score),[33],-0.127
same,glycan array binding signal (z-score),[34],-0.383
same,glycan array binding signal (z-score),[35],0.756
same,glycan array binding signal (z-score),[36],0.749
same,glycan array binding signal (z-score),[37],-0.652
same,glycan array binding signal (z-score),[38],1.22
same,glycan array binding signal (z-score),[39],-0.058
same,glycan array binding signal (z-score),[40],-0.014
same,glycan array binding signal (z-score),[41],-0.019
same,glycan array binding signal (z-score),[42],-0.121
same,glycan array binding signal (z-score),[43],0.078
same,glycan array binding signal (z-score),[44],-0.335
same,glycan array binding signal (z-score),[45],-0.088
